Results as given in the supplement of paper PMC8728848.
This is one part of the list.

What was measured:
Test in all cases: glycan array binding signal (z-score within array); higher = stronger binding
Details in all cases: glycan notation: IUPAC condensed, linker removed
[1] = target: GlcNAc(a1-6)Gal(b1-4)GlcNAc
Summary of the method: (§1)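 The Consortium for Functional Glycomics database supplied 3228 glycan arrays, of which those lacking an available protein sequence were dropped. The binding signal, a within-array Z-score, was averaged across arrays of the same protein sequence and across linkers. Negative scores can be read as non-binding.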

[2] = target: GlcNAc(b1-2)Gal(b1-3)GalNAc
Summary of the method: as §1

[3] = target: GlcNAc(b1-2)Man(a1-3)[GlcNAc(b1-2)Man(a1-6)]Man(b1-4)GlcNAc(b1-4)GlcNAc
Summary of the method: as §1

[4] = target: GlcNAc(b1-2)Man(a1-3)[GlcNAc(b1-2)Man(a1-6)]Man(b1-4)GlcNAc(b1-4)[Fuc(a1-6)]GlcNAc
Summary of the method: as §1

[5] = target: GlcNAc(b1-2)Man(a1-3)[GlcNAc(b1-4)][GlcNAc(b1-2)Man(a1-6)]Man(b1-4)GlcNAc(b1-4)GlcNAc
Summary of the method: as §1

[6] = target: GlcNAc(b1-2)Man(a1-3)[GlcNAc(b1-4)][GlcNAc(b1-2)Man(a1-6)]Man(b1-4)GlcNAc(b1-4)[Fuc(a1-6)]GlcNAc
Summary of the method: as §1

[7] = target: GlcNAc(b1-2)[GlcNAc(b1-4)]Man(a1-3)[GlcNAc(b1-2)Man(a1-6)]Man(b1-4)GlcNAc(b1-4)GlcNAc
Summary of the method: as §1

[8] = target: GlcNAc(b1-2)[GlcNAc(b1-4)]Man(a1-3)[GlcNAc(b1-4)][GlcNAc(b1-2)Man(a1-6)]Man(b1-4)GlcNAc(b1-4)GlcNAc
Summary of the method: as §1

[9] = target: GlcNAc(b1-2)[GlcNAc(b1-4)]Man(a1-3)[GlcNAc(b1-4)][GlcNAc(b1-2)[GlcNAc(b1-6)]Man(a1-6)]Man(b1-4)GlcNAc(b1-4)GlcNAc
Summary of the method: as §1

[10] = target: GlcNAc(b1-2)[GlcNAc(b1-4)]Man(a1-3)[GlcNAc(b1-4)][GlcNAc(b1-2)[GlcNAc(b1-6)]Man(a1-6)]Man(b1-4)GlcNAc(b1-4)[Fuc(a1-6)]GlcNAc
Summary of the method: as §1

[11] = target: GlcNAc(b1-2)[GlcNAc(b1-6)]Man(a1-6)[GlcNAc(b1-2)Man(a1-3)]Man(b1-4)GlcNAc(b1-4)GlcNAc
Summary of the method: as §1

[12] = target: GlcNAc(b1-2)[GlcNAc(b1-6)]Man(a1-6)[GlcNAc(b1-2)Man(a1-3)]Man(b1-4)GlcNAc(b1-4)[Fuc(a1-6)]GlcNAc
Summary of the method: as §1

[13] = target: GlcNAc(b1-2)[GlcNAc(b1-6)]Man(a1-6)[GlcNAc(b1-4)][GlcNAc(b1-2)Man(a1-3)]Man(b1-4)GlcNAc(b1-4)GlcNAc
Summary of the method: as §1

GlcNAc(b1-3)Fuc = target: GlcNAc(b1-3)Fuc
Summary of the method: as §1

GlcNAc(b1-3)Gal = target: GlcNAc(b1-3)Gal
Summary of the method: as §1

[14] = target: GlcNAc(b1-3)Gal(b1-3)GalNAc
Summary of the method: as §1

GlcNAc(b1-3)Gal(b1-4)Glc = target: GlcNAc(b1-3)Gal(b1-4)Glc
Summary of the method: as §1

[15] = target: GlcNAc(b1-3)Gal(b1-4)GlcNAc
Summary of the method: as §1

[16] = target: GlcNAc(b1-3)Gal(b1-4)GlcNAc(b1-2)Man(a1-3)[GlcNAc(b1-3)Gal(b1-4)GlcNAc(b1-2)Man(a1-6)]Man(b1-4)GlcNAc(b1-4)GlcNAc
Summary of the method: as §1

[17] = target: GlcNAc(b1-3)Gal(b1-4)GlcNAc(b1-2)Man(a1-3)[GlcNAc(b1-3)Gal(b1-4)GlcNAc(b1-2)Man(a1-6)]Man(b1-4)GlcNAc(b1-4)[Fuc(a1-6)]GlcNAc
Summary of the method: as §1

[18] = target: GlcNAc(b1-3)Gal(b1-4)GlcNAc(b1-2)[GlcNAc(b1-3)Gal(b1-4)GlcNAc(b1-6)]Man(a1-6)[GlcNAc(b1-3)Gal(b1-4)GlcNAc(b1-2)Man(a1-3)]Man(b1-4)GlcNAc(b1-4)GlcNAc
Summary of the method: as §1

[19] = target: GlcNAc(b1-3)Gal(b1-4)GlcNAc(b1-3)Gal(b1-4)GlcNAc
Summary of the method: as §1

[20] = target: GlcNAc(b1-3)Gal(b1-4)GlcNAc(b1-3)Gal(b1-4)GlcNAc(b1-2)Man(a1-3)[GlcNAc(b1-3)Gal(b1-4)GlcNAc(b1-3)Gal(b1-4)GlcNAc(b1-2)Man(a1-6)]Man(b1-4)GlcNAc(b1-4)GlcNAc
Summary of the method: as §1

[21] = target: GlcNAc(b1-3)Gal(b1-4)GlcNAc(b1-3)Gal(b1-4)GlcNAc(b1-2)Man(a1-3)[GlcNAc(b1-3)Gal(b1-4)GlcNAc(b1-3)Gal(b1-4)GlcNAc(b1-2)Man(a1-6)]Man(b1-4)GlcNAc(b1-4)[Fuc(a1-6)]GlcNAc
Summary of the method: as §1

[22] = target: GlcNAc(b1-3)Gal(b1-4)GlcNAc(b1-3)Gal(b1-4)GlcNAc(b1-2)[GlcNAc(b1-3)Gal(b1-4)GlcNAc(b1-3)Gal(b1-4)GlcNAc(b1-6)]Man(a1-6)[GlcNAc(b1-3)Gal(b1-4)GlcNAc(b1-3)Gal(b1-4)GlcNAc(b1-2)Man(a1-3)]Man(b1-4)GlcNAc(b1-4)[Fuc(a1-6)]GlcNAc
Summary of the method: as §1

[23] = target: GlcNAc(b1-3)Gal(b1-4)GlcNAc(b1-3)Gal(b1-4)GlcNAc(b1-3)Gal(b1-4)GlcNAc(b1-2)Man(a1-3)[GlcNAc(b1-3)Gal(b1-4)GlcNAc(b1-3)Gal(b1-4)GlcNAc(b1-3)Gal(b1-4)GlcNAc(b1-2)Man(a1-6)]Man(b1-4)GlcNAc(b1-4)GlcNAc
Summary of the method: as §1

[24] = target: GlcNAc(b1-3)Gal(b1-4)GlcNAc(b1-3)Gal(b1-4)GlcNAc(b1-3)Gal(b1-4)GlcNAc(b1-2)Man(a1-3)[GlcNAc(b1-3)Gal(b1-4)GlcNAc(b1-3)Gal(b1-4)GlcNAc(b1-3)Gal(b1-4)GlcNAc(b1-2)Man(a1-6)]Man(b1-4)GlcNAc(b1-4)[Fuc(a1-6)]GlcNAc
Summary of the method: as §1

[25] = target: GlcNAc(b1-3)Gal(b1-4)GlcNAc(b1-3)Gal(b1-4)GlcNAc(b1-3)Gal(b1-4)GlcNAc(b1-2)[GlcNAc(b1-3)Gal(b1-4)GlcNAc(b1-3)Gal(b1-4)GlcNAc(b1-3)Gal(b1-4)GlcNAc(b1-6)]Man(a1-6)[GlcNAc(b1-3)Gal(b1-4)GlcNAc(b1-3)Gal(b1-4)GlcNAc(b1-3)Gal(b1-4)GlcNAc(b1-2)Man(a1-3)]Man(b1-4)GlcNAc(b1-4)[Fuc(a1-6)]GlcNAc
Summary of the method: as §1

[26] = target: GlcNAc(b1-3)Gal(b1-4)GlcNAc(b1-3)Gal(b1-4)GlcNAc(b1-3)Gal(b1-4)GlcNAc(b1-3)Gal(b1-4)GlcNAc(b1-2)Man(a1-3)[GlcNAc(b1-3)Gal(b1-4)GlcNAc(b1-3)Gal(b1-4)GlcNAc(b1-3)Gal(b1-4)GlcNAc(b1-3)Gal(b1-4)GlcNAc(b1-2)Man(a1-6)]Man(b1-4)GlcNAc(b1-4)GlcNAc
Summary of the method: as §1

[27] = target: GlcNAc(b1-3)Gal(b1-4)GlcNAc(b1-3)Gal(b1-4)GlcNAc(b1-3)Gal(b1-4)GlcNAc(b1-3)Gal(b1-4)GlcNAc(b1-2)Man(a1-3)[GlcNAc(b1-3)Gal(b1-4)GlcNAc(b1-3)Gal(b1-4)GlcNAc(b1-3)Gal(b1-4)GlcNAc(b1-3)Gal(b1-4)GlcNAc(b1-2)Man(a1-6)]Man(b1-4)GlcNAc(b1-4)[Fuc(a1-6)]GlcNAc
Summary of the method: as §1

[28] = target: GlcNAc(b1-3)Gal(b1-4)GlcNAc(b1-3)Gal(b1-4)GlcNAc(b1-3)Gal(b1-4)GlcNAc(b1-3)Gal(b1-4)GlcNAc(b1-2)[GlcNAc(b1-3)Gal(b1-4)GlcNAc(b1-3)Gal(b1-4)GlcNAc(b1-3)Gal(b1-4)GlcNAc(b1-3)Gal(b1-4)GlcNAc(b1-6)]Man(a1-6)[GlcNAc(b1-3)Gal(b1-4)GlcNAc(b1-3)Gal(b1-4)GlcNAc(b1-3)Gal(b1-4)GlcNAc(b1-3)Gal(b1-4)GlcNAc(b1-2)Man(a1-3)]Man(b1-4)GlcNAc(b1-4)[Fuc(a1-6)]GlcNAc
Summary of the method: as §1

[29] = target: GlcNAc(b1-3)Gal(b1-4)GlcNAc(b1-3)Gal(b1-4)GlcNAc(b1-3)GalNAc
Summary of the method: as §1

[30] = target: GlcNAc(b1-3)Gal(b1-4)GlcNAc(b1-3)GalNAc
Summary of the method: as §1

[31] = target: GlcNAc(b1-3)Gal(b1-4)GlcNAc(b1-3)[GlcNAc(b1-3)Gal(b1-4)GlcNAc(b1-3)]GalNAc
Summary of the method: as §1

[32] = target: GlcNAc(b1-3)Gal(b1-4)GlcNAc(b1-6)[Gal(b1-3)]GalNAc
Summary of the method: as §1

[33] = target: GlcNAc(b1-3)Gal(b1-4)GlcNAc(b1-6)[GlcNAc(b1-3)Gal(b1-3)]GalNAc
Summary of the method: as §1

[34] = target: GlcNAc(b1-3)Gal(b1-4)GlcNAc(b1-6)[GlcNAc(b1-3)]Gal(b1-4)GlcNAc
Summary of the method: as §1

GlcNAc(b1-3)GalNAc = target: GlcNAc(b1-3)GalNAc
Summary of the method: as §1

GlcNAc(b1-3)Man = target: GlcNAc(b1-3)Man
Summary of the method: as §1

[35] = target: GlcNAc(b1-3)[GlcNAc(b1-4)][GlcNAc(b1-6)]GlcNAc
Summary of the method: as §1

[36] = target: GlcNAc(b1-3)[GlcNAc(b1-6)]Gal(b1-4)GlcNAc
Summary of the method: as §1

[37] = target: GlcNAc(b1-3)[GlcNAc(b1-6)]GalNAc
Summary of the method: as §1

[38] = target: GlcNAc(b1-4)Gal(b1-4)GlcNAc
Summary of the method: as §1

GlcNAc(b1-4)GlcNAc = target: GlcNAc(b1-4)GlcNAc
Summary of the method: as §1

[39] = target: GlcNAc(b1-4)GlcNAc(b1-4)GlcNAc
Summary of the method: as §1

B1: LgFlo1 (Saccharomyces pastorianus), B3IUA8 (protein)
chain: SGSTQACLPVGSRKNGMNVNFYKYSLQDSTTYSDPQYMAYKYSDTKKLGSVSGQTHLSIYYGPNTAFWNTASWSSDLFGFYTTPTNVTVEMTGYFLPPQTGSYTFKFATVDDSAILSVGGSIAFECCAQEQPPITSTDFTINGIKPWDAATPTDIKGSTYMYAGYYYPIKIVYSNAKALARLPVSVVLPDGTEVNDDFEGYVYSFDDDLSQSNCTIPDPSKHTTS
- glycan array binding signal (z-score) [1]: -0.389
- glycan array binding signal (z-score) [2]: -0.049
- glycan array binding signal (z-score) [3]: -0.139
- glycan array binding signal (z-score) [4]: -0.337
- glycan array binding signal (z-score) [5]: -0.511
- glycan array binding signal (z-score) [6]: -0.212
- glycan array binding signal (z-score) [7]: -0.18
- glycan array binding signal (z-score) [8]: 1.6
- glycan array binding signal (z-score) [9]: -0.254
- glycan array binding signal (z-score) [10]: -0.09
- glycan array binding signal (z-score) [11]: -0.099
- glycan array binding signal (z-score) [12]: 0.371
- glycan array binding signal (z-score) [13]: -0.441
- glycan array binding signal (z-score) (GlcNAc(b1-3)Fuc): -0.332
- glycan array binding signal (z-score) (GlcNAc(b1-3)Gal): -0.087
- glycan array binding signal (z-score) [14]: -0.312
- glycan array binding signal (z-score) (GlcNAc(b1-3)Gal(b1-4)Glc): -0.18
- glycan array binding signal (z-score) [15]: -0.197
- glycan array binding signal (z-score) [16]: -0.306
- glycan array binding signal (z-score) [17]: -0.266
- glycan array binding signal (z-score) [18]: -0.329
- glycan array binding signal (z-score) [19]: -0.265
- glycan array binding signal (z-score) [20]: 0.397
- glycan array binding signal (z-score) [21]: -0.247
- glycan array binding signal (z-score) [22]: 0.429
- glycan array binding signal (z-score) [23]: -0.028
- glycan array binding signal (z-score) [24]: -0.074
- glycan array binding signal (z-score) [25]: 0.151
- glycan array binding signal (z-score) [26]: -0.257
- glycan array binding signal (z-score) [27]: -0.261
- glycan array binding signal (z-score) [28]: -0.115
- glycan array binding signal (z-score) [29]: -0.283
- glycan array binding signal (z-score) [30]: -0.337
- glycan array binding signal (z-score) [31]: -0.228
- glycan array binding signal (z-score) [32]: -0.44
- glycan array binding signal (z-score) [33]: -0.433
- glycan array binding signal (z-score) [34]: -0.238
- glycan array binding signal (z-score) (GlcNAc(b1-3)GalNAc): 0.068
- glycan array binding signal (z-score) (GlcNAc(b1-3)Man): -0.469
- glycan array binding signal (z-score) [35]: -0.403
- glycan array binding signal (z-score) [36]: -0.276
- glycan array binding signal (z-score) [37]: -0.027
- glycan array binding signal (z-score) [38]: -0.297
- glycan array binding signal (z-score) (GlcNAc(b1-4)GlcNAc): -0.042
- glycan array binding signal (z-score) [39]: -0.327
